This passage reports AUC and IC50 results from the supplement of paper PMC4967469.

Common to all, as to assay: Viability of human cancer cell lines after 72 h of drug (GDSC screen)
Compound in one assay: CC1(C)CC(=O)c2c(C(F)(F)F)nn(-c3ccc(C(N)=O)c(N[C@H]4CC[C@H](O)CC4)c3)c2C1 [SNX-2112]
The note with it: top dose 2.56 µM. The protocol: (§1)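 Human cancer cell lines in 384-well plates, medium with 10% serum, drug for 72 h over a 256-fold dose range (nine 2-fold or five 4-fold steps up to the top dose). Adherent lines were fixed and stained with the nucleic acid dye Syto60, suspension lines read with resazurin; signal relative to control wells, capped at 0 and 100%. One two-parameter sigmoid per drug and line, fitted in a mixed model over all curves with the slope shared within a line.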

Compound in the next assay: CN(c1ncccc1CNc1nc(Nc2ccc3c(c2)CC(=O)N3)ncc1C(F)(F)F)S(C)(=O)=O [PF-562271]
The settings on record: top dose 2.56 µM; top dose inferred. The protocol:
as §1

Compound in a further assay: O=C(NC1CC1)c1cccc(-c2ccc3c(NC(=O)C4CC4)n[nH]c3c2)c1 [XMD13-2]
The note with it: top dose 10.24 µM; top dose inferred. As to the method:
as §1

Compound in a further assay: CN(C)C/C=C/C(=O)Nc1cc2c(Nc3ccc(F)c(Cl)c3)ncnc2cc1O[C@H]1CCOC1 [Afatinib]
The protocol: as §1

The mark [1] stands for this setting: top dose 0.5 µM, screen: GDSC drug entry 1032.
[2] abbreviates: top dose 10 µM, screen: GDSC drug entry 1377, top dose inferred.

A lower IC50 marks a more sensitive line; a limit (>, <) means that the fit lies beyond the doses tested. AUC, from the same fit, is the share of area under the viability curve across the 256-fold dose range; it is 1 without any effect and falls as sensitivity rises. For some of these results: Where the top dose is marked as inferred, it is not printed in the source and was worked back from the curve model. For some of these results: Where an entry number is given, a second screen of the drug exists; the two often differ.

The IC50 is the midpoint of a concentration-inhibition curve. On to MCF7 (breast, adherent), for which the AUC with SNX-2112 came to 0.986; with PF-562271 it was 0.888; in the assay with XMD13-2, 0.986. Moreover, the IC50 with SNX-2112 is > 2.56 µM; with PF-562271 it was > 2.56 µM; in the assay with XMD13-2, > 10.2 µM.
MDA-MB-231 (breast, adherent): the AUC was 0.986 with SNX-2112, 0.979 with Afatinib (setting [1]), 0.964 with Afatinib (setting [2]) and 0.976 with XMD13-2. The IC50 with SNX-2112 was > 2.56 µM; in the assay with Afatinib (setting [1]), > 0.5 µM; with Afatinib (setting [2]), > 10 µM; in the assay with XMD13-2, > 10.2 µM.
As to MM1S (myeloma, suspension), in the assay with Afatinib (setting [1]), the AUC amounted to 0.985 and the IC50 was > 0.5 µM.
With “NCI-H460 (large cell lung carcinoma, adherent)”, the AUC in the assay with SNX-2112 worked out at 0.49; with PF-562271 it was 0.881; with XMD13-2 it was 0.99. Also, the results for the IC50 in the assay with SNX-2112, with PF-562271 and with XMD13-2 were 0.151 µM, 2.25 µM and > 10.2 µM, respectively.
For the cell line “NCI-H748 (small cell lung carcinoma, suspension)”, the values for the AUC in the assay with SNX-2112, with PF-562271 and with XMD13-2 were 0.962, 0.923 and 0.9, respectively. Also, the IC50 was > 2.56 µM in the assay with SNX-2112, > 2.56 µM in the assay with PF-562271 and > 10.2 µM with XMD13-2.
As to “NCI-H1793 (lung adenocarcinoma, adherent)”, the AUC with SNX-2112 stood at 0.98; with Afatinib (setting [2]) it was 0.922; with XMD13-2 it was 0.982. The IC50 was > 2.56 µM with SNX-2112, > 10 µM with Afatinib (setting [2]) and > 10.2 µM in the assay with XMD13-2.
For “NCI-H1915 (large cell lung carcinoma, adherent)”, the AUC in the assay with SNX-2112 was 0.421; with PF-562271 it was 0.955; in the assay with XMD13-2, 0.927. Also, the values for the IC50 in the assay with SNX-2112, with PF-562271 and in the assay with XMD13-2 were 0.0968 µM, > 2.56 µM and > 10.2 µM, respectively.
For “NCI-H2030 (lung adenocarcinoma, adherent)”, the AUC was found to be 0.463 with SNX-2112, 0.852 with Afatinib (setting [2]) and 0.924 with XMD13-2. In addition, the IC50 was 0.125 µM with SNX-2112, 9.45 µM with Afatinib (setting [2]) and > 10.2 µM with XMD13-2.
For the cell line “NCI-H2066 (small cell lung carcinoma, adherent)”, in the assay with Afatinib (setting [2]), the AUC was 0.976 and the IC50 is > 10 µM.
As to “NCI-H2122 (lung adenocarcinoma, adherent)”, the AUC in the assay with SNX-2112 was 0.816; in the assay with PF-562271 it was 0.875; with XMD13-2 it was 0.975. Also, the IC50 is 1.3 µM with SNX-2112, 2.24 µM with PF-562271 and > 10.2 µM in the assay with XMD13-2.
With “NCI-H2170 (lung squamous cell carcinoma, adherent)”, the AUC with SNX-2112 stood at 0.939; with PF-562271, 0.934; with XMD13-2, 0.985. Also, the IC50 in the assay with SNX-2112 is > 2.56 µM; with PF-562271, > 2.56 µM; in the assay with XMD13-2, > 10.2 µM.
Turning to “NCI-H2171 (small cell lung carcinoma, suspension)”, the AUC in the assay with SNX-2112 was found to be 0.695; in the assay with PF-562271, 0.945; with XMD13-2, 0.896. Moreover, the IC50 is 0.518 µM in the assay with SNX-2112, > 2.56 µM in the assay with PF-562271 and 9.68 µM with XMD13-2.
Regarding “NCI-H2196 (small cell lung carcinoma, adherent)”, the AUC in the assay with SNX-2112 is 0.487; with PF-562271, 0.977; with XMD13-2 it was 0.937. In addition, the IC50 with SNX-2112 was 0.147 µM; with PF-562271, > 2.56 µM; in the assay with XMD13-2 it was > 10.2 µM.
For the cell line “NCI-H2228 (lung adenocarcinoma, adherent)”, the AUC in the assay with SNX-2112 stood at 0.813; in the assay with PF-562271, 0.951; in the assay with XMD13-2 it was 0.953. In addition, the IC50 with SNX-2112 was 2.41 µM; with PF-562271, > 2.56 µM; in the assay with XMD13-2, > 10.2 µM.
For NK-92MI (lymphoid neoplasm, suspension), in the assay with PF-562271, the AUC was 0.887 and the IC50 worked out at 2.51 µM.
As for PC-3 (prostate, adherent), in the assay with SNX-2112, the AUC amounted to 0.51 and the IC50 is 0.172 µM. Besides, in the assay with XMD13-2, the AUC is 0.949 and the IC50 is > 10.2 µM.
In the case of SCC-3 (B-cell lymphoma, suspension), the values for the AUC with SNX-2112, with PF-562271 and in the assay with XMD13-2 were 0.496, 0.981 and 0.839, respectively. The figures for the IC50 in the assay with SNX-2112, in the assay with PF-562271 and with XMD13-2 were 0.157 µM, > 2.56 µM and 4.39 µM, respectively.
With “SIG-M5 (acute myeloid leukaemia, suspension)”, the AUC in the assay with SNX-2112 was 0.068; with PF-562271, 0.838; with XMD13-2, 0.894. Further, the results for the IC50 with SNX-2112, with PF-562271 and with XMD13-2 were 0.0105 µM, 1.15 µM and 6.92 µM, respectively.
On to SK-OV-3 (ovary, adherent), for which the AUC with SNX-2112 is 0.469; with PF-562271 it was 0.887; with XMD13-2 it was 0.901. The IC50 with SNX-2112 is 0.129 µM; with PF-562271 it was > 2.56 µM; with XMD13-2 it was > 10.2 µM.
With “SKM-1 (haematopoietic neoplasm, suspension)”, in the assay with Afatinib (setting [2]), the AUC amounted to 0.908 and the IC50 is > 10 µM.
Take SNU-175 (large intestine, suspension): in the assay with SNX-2112, the AUC turned out to be 0.285 and the IC50 turned out to be 0.0412 µM. For the same cell line, in the assay with XMD13-2, the AUC was determined as 0.749 and the IC50 was found to be 3.15 µM.
Consider SNU-475 (liver, adherent), for which the AUC with SNX-2112 worked out at 0.624; in the assay with PF-562271 it was 0.991; with XMD13-2 it was 0.957. Also, the IC50 with SNX-2112 is 0.336 µM; with PF-562271 it was > 2.56 µM; with XMD13-2, > 10.2 µM.
With SNU-1040 (large intestine, adherent), the AUC in the assay with SNX-2112 was determined as 0.837; in the assay with Afatinib (setting [2]), 0.905; with XMD13-2, 0.834. Also, the IC50 was > 2.56 µM with SNX-2112, > 10 µM with Afatinib (setting [2]) and 10.1 µM with XMD13-2.
For the cell line “SU-DHL-1 (anaplastic large cell lymphoma, suspension)”, the AUC turned out to be 0.32 in the assay with SNX-2112, 0.997 in the assay with PF-562271 and 0.732 with XMD13-2. Also, the IC50 was 0.0588 µM with SNX-2112, > 2.56 µM with PF-562271 and 2.33 µM with XMD13-2.
“SW900 (lung squamous cell carcinoma, adherent)”: the AUC is 0.908 in the assay with SNX-2112, 0.95 in the assay with PF-562271 and 0.982 in the assay with XMD13-2. For the same cell line, the IC50 is > 2.56 µM with SNX-2112, > 2.56 µM with PF-562271 and > 10.2 µM with XMD13-2.
Take SW1116 (large intestine, adherent): the AUC with SNX-2112 worked out at 0.985; with Afatinib (setting [2]) it was 0.764; with XMD13-2, 0.983. For the same cell line, the results for the IC50 with SNX-2112, with Afatinib (setting [2]) and with XMD13-2 were > 2.56 µM, 4.92 µM and > 10.2 µM, respectively.
Consider “TALL-1 (T-cell lymphoblastic leukaemia, suspension)”, for which the AUC worked out at 0.607 with SNX-2112, 0.97 in the assay with PF-562271 and 0.955 with XMD13-2. For the same cell line, the values for the IC50 with SNX-2112, with PF-562271 and with XMD13-2 were 0.309 µM, > 2.56 µM and > 10.2 µM, respectively.
With YMB-1-E (breast, adherent), in the assay with SNX-2112, the AUC was found to be 0.836 and the IC50 is > 2.56 µM. Moreover, in the assay with XMD13-2, the AUC stood at 0.936 and the IC50 was > 10.2 µM.
